# Read-outs that look alike come from different tables or passages of the source.
# Key:
# MES-SA/DX5 = experiment: SRB growth inhibition assay, P-gp over-expressing line; assay type: cell-based
# PPC-1 = experiment: cells; settings: Homo sapiens, PPC-1, 96 h
# DU 145 = experiment: cells; settings: Homo sapiens, DU-145, 96 h, read-out: IC50 (nM), DU-145
# LNCaP = experiment: cells; settings: Homo sapiens, 96 h, read-out: IC50 (nM), LNCaP
# PC-3 = experiment: cells; settings: Homo sapiens, PC-3, 96 h, read-out: IC50 (nM), PC-3
# Source text: The only compounds which belong to the invention are the ones falling under the scope of formula (XI).
# Cells were stained with SRB solution.
# Cells. […] Cells between the third and fifth passages were used for experiments.
# Cell growth inhibition studies. […] Cells were stained with sulphorhodamine B (SRB) solution.
# MES-SA = experiment: SRB growth inhibition assay; assay type: cell-based; settings: Homo sapiens, 96 h, Table 7
# B16-F1 melanoma cells = experiment: Melanoma colony formation assay in soft agar; assay type: cell-based; settings: Mus musculus, B16-F1, 336 h, read-out: concentration with effective inhibition of colony formation; 14 days; tested 20, 100, 500 nM
# Procedure: B16-F1 melanoma cells were plated at a colony-forming density (2000 cells per well on six-well plates) on top of 0.8% base agar. Cells were grown in 0.4% agar together with DMEM medium supplemented with fetal bovine serum and an antibiotic-antimycotic solution at 37 °C in an atmosphere of 95% air and 5% CO2. […] Compounds were added to the media from 1 mM DMSO stock solutions, and a corresponding dilution of DMSO was used as control. Cells were grown for 14 days. Plates were photographed, and the number of colonies was measured by Artek 880 Automated Colony Counter (Artek Systems Corporation, Farmingdale, NY).
# WM-164 melanoma cells = experiment: Microtubule imaging (immunofluorescence); assay type: cell-based, human; settings: 18 h treatment
# Source text: Primary antibody for tubulin and fluorescence-labeled secondary antibody were subsequently added to the cells. Cell nuclei were stained by DAPI. Whole Cell Stain Green was also applied to all cells. All images were acquired with an Olympus IX71 inverted fluorescence microscope (Olympus Corp., Tokyo, Japan) with overlays from separate images of tubulin (red), nuclei (blue), and whole cells (green).
# A375 cells = experiment: Cell cycle analysis (G2/M arrest), flow cytometry; assay type: cell-based; settings: Homo sapiens, A-375; 24 h; Figure 25D; read-out: concentration from which most cells are arrested in the G2/M phase
# HUVEC monolayers = experiment: Endothelial monolayer permeability assay; assay type: cell-based, human; settings: leakage of dextran after 1, 2, 4 h
smiles,measurement,setting,value
"Fc1ccc(-c2nccc3ccc(-c4ccc5[nH]ccc5c4)cc23)cc1 [6c, 1-(4-Fluoro-phenyl)-7-(1H-indol-5-yl)-isoquinoline]",IC50,"MES-SA/DX5; Homo sapiens, MES-SA/Dx5, P-gp over-expressed, SRB, 96 h, Table 7",59.2 ± 0.1 nM
same,Resistance factor,"MES-SA/DX5; ratio of IC50 MES-SA/DX5 to MES-SA, 5760 min",1.7
same,IC50,"PPC-1; read-out: IC50 (nM), PPC-1",27.7 ± 4.5 nM
same,IC50,DU 145,46.6 ± 13.8 nM
same,IC50,LNCaP,38.3 ± 9.7 nM
same,IC50,PC-3,25.6 ± 8.3 nM
same,IC50,MES-SA,35.6 ± 2.8 nM
"COc1ccc(-c2nc(C(=O)c3ccc(F)cc3)c[nH]2)cc1 [12cb, (4-Fluorophenyl)(2-(4-methoxyphenyl)-1H-imidazol-4-yl)methanone]",minimal effective concentration,B16-F1 melanoma cells,0.02 µM
same,effect on microtubules,WM-164 melanoma cells,microtubule fragmentation
same,minimal effective concentration,A375 cells,0.2 µM
"COc1cc(C(=O)c2c[nH]c(-c3ccc(C)cc3)n2)cc(OC)c1OC [12da, (2-(p-Tolyl)-1H-imidazol-4-yl)(3,4,5-trimethoxyphenyl)methanone]",effect on microtubules,WM-164 melanoma cells,microtubule fragmentation
"O=C(c1ccc(F)cc1)c1c[nH]c(-c2ccc(Cl)cc2)n1 [12fb, (2-(4-Chlorophenyl)-1H-imidazol-4-yl)(4-fluorophenyl)methanone]",IC50,PPC-1; read-out: IC50 ± SEM (nM) PPC-1,32 ± 1 nM
COc1ccc(/C=C\c2cc(OC)c(OC)c(OC)c2)cc1O [CA4],permeability of endothelial cell monolayer,HUVEC monolayers,increased permeability
"CC(=O)O[C@@]12CO[C@@H]1C[C@H](O)[C@@]1(C)C(=O)[C@H](O)C3=C(C)[C@@H](OC(=O)[C@H](O)[C@@H](NC(=O)OC(C)(C)C)c4ccccc4)C[C@@](O)([C@@H](OC(=O)c4ccccc4)[C@H]21)C3(C)C [Docetaxel, reference compound]",IC50,DU 145,5.2 ± 1 nM
same,IC50,LNCaP,4.7 ± 1.3 nM
same,IC50,MES-SA,5.9 ± 1.1 nM
"CC(=O)O[C@H]1C(=O)[C@@]2(C)[C@H]([C@H](OC(=O)c3ccccc3)[C@]3(O)C[C@H](OC(=O)[C@H](O)[C@@H](NC(=O)c4ccccc4)c4ccccc4)C(C)=C1C3(C)C)[C@]1(OC(C)=O)CO[C@@H]1C[C@@H]2O [Paclitaxel, reference compound]",effect on microtubules,WM-164 melanoma cells,condensation of microtubules
